From the supplement of paper PMC10126150
Values marked as one replicate rest on one cluster of the flow cell; about a third of the high ones do not repeat.

tested on: ATP; assay: switch fluorescence ratio, 500 uM ATP over buffer (Cy3 cluster intensity, sum of 5 cycles each) (fold (ratio)); higher = stronger signal-on switching upon ATP binding; sequences stand for … in TCGTCGGCAGCGTCAGATGTGTATAAGAGACAGTTTTTTTTTTTTTTTTTTTTTTTTT…TC; conditions: aptamer strand: ATP DNA aptamer (quencher-CACCTGGGGGAGTATTGCGGAGGAAGG + anchor), 100 nM annealed; ATP concentration: 500 uM; one replicate
Outline: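 Between each of five buffer/ATP cycles, the flow-cell was stripped with NaOH and re-annealed. Each cycle imaged Cy3-labelled switching-strand clusters, annealed to 100 nM quencher-labelled ATP aptamer on a modified Illumina MiSeq flow-cell, first in selection buffer and then after 15 min with 500 uM ATP at 22 °C. The fluorescence ratio is summed target-cycle over summed buffer-cycle Cy3 intensity per cluster, averaged per switch-domain sequence, with clusters outside 100-1000 RFU excluded.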
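Also: ATP exposure 15 min at 22 °C before imaging.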

Sequence	switch fluorescence ratio
AAAACTGGAT	0.953
TACAATATAT	0.997
GAGAGGTATG	0.992
GGTTGGATTC	1.03
CCACTCAACC	1.19
CCTACCCCGT	1.01
CGAAGTGGCG	0.994
TCAGGCTGCT	1.02
GGTTCTCTGT	1
ATGACACAGG	1.19
GTGGACGGCC	1.06
GTTTGTAATA	1.04
GCGTGTAGCC	0.967
GGTAACCAGT	0.971
TTCCAGCGGA	1.01
GGCGGATTCT	0.986
CTCCTCGTAC	3.15
CCGGGCTTAT	1.5
CGAAAAATTG	1.02
CCGGTTCACC	1.02
AAACCGCAAG	4.14
ATTGGATTGT	0.983
TGTGTTTGAT	1.03
TAGGCGGCGC	1
CGGAGTCTCT	1.09
TCGCAGGTTA	1.66

Sequence	switch fluorescence ratio
TGCTATAGAT	1
GAGTACGATA	1.02
TGGTCCAAAA	1.02
ATCTGCAGGC	1.96
AGGTAGCAAC	1.24
CTGAAGCGGG	1.08
GTTGGTGC	1.08
CTTTGCCTAC	1.77
ATCCTTGGTT	0.989
TCTTGCTCGC	1.29
CACAATGG	1.16
GGGTGTCACT	1.09
TTAAGTAGCG	0.935
GTAGATGCGG	0.996
ATCCGAGACG	1.03
TTCGTGCAGT	1.03
GCGACATCTA	1.01
GCTCTGAAAT	1.9
TATTTACTCA	1.04
ACCCTTGGTA	0.977
TGTGGAACTC	1.02
TAAGGAATC	1.01
TCTGTTCCTG	1.05
ACCTCCATAG	1.43
TAAAATTATT	1.03
ATGCCCCCTT	0.986

Sequence	switch fluorescence ratio
ATGGCTCT	0.986
GATGTTGGTA	0.986
AATTTGAGGT	1.06
GGTTGTCTTT	0.992
CTATGTAACG	0.972
AACGGCCTAC	1.17
CGCGCTCTGT	1.01
TAGTGGCGAA	0.994
GATCTGACTG	1
TTGGGTACG	0.966
TGTCAACTCG	1
GCGGCCGAGC	1.01
CCCGACCTGC	1.37
GCTGACGTCT	0.961
GGCCGAAGAT	0.998
GCGCGTAATC	1
GCACGCGATC	3.64
CTCGCACGAG	1.11
AAGCGGATAA	1.1
TTGTCAGCCC	0.945
GCATCCAGC	0.991
AGCTCGCTAG	1.05
GAGCGCCTAC	1.51
ATAGAGCATT	1.03
GCGCTATTGT	1.02
AGTGTTTGTG	0.954

Sequence	switch fluorescence ratio
GCATGTGAGG	1.01
ATGGGCCTGC	1.06
GTGTTTTTTA	0.972
GGTGATCTGT	0.98
TTAGGCTCTT	1.02
CTTGCTTAGA	0.982
GTAAAGAGTC	1.03
CTTCGTAGCT	1.14
GGATGACAAA	1.03
ACGTGCCGG	0.995
CGTGGCGCGC	1.01
CGTGTAGTAC	1.19
AGGATAGTGG	0.969
TCTGGCTCTT	0.976
TAATAGTATG	0.974
TCGCTCCCTG	1.06
TGCCTAAGGT	0.999
ACCACATTTG	1.01
GGATGAAGCC	0.993
GAATAAATCT	0.984
CTTGAACACT	1.01
CCTTTCCTTT	1.03
ATGTAGTG	0.973
CCTTGGGGCA	1.01
GTGCAGGTG	2.38
ATATCGAGGA	0.964

Sequence	switch fluorescence ratio
AGTAATATCG	1.01
TCAGAGGATA	1.04
ACCCTCCTAT	1.04
ACAGACATA	1.15
ATTGAAAGTT	1.02
CGCGACAGGA	1.04
TTTGTCAAGC	1.09
TTGCTTCCAT	1.03
TAGTACCTAT	1.05
GTTTTGCATT	0.997
ACGAATCGTC	1.01
TGATTGTGAC	0.937
TCACCGGCTA	1.07
CGAGTAGTCC	1
TTAAAGGGAA	1.02
ACTTCGGACT	1.06
CCCAACTATT	0.994
TACGCGCGAT	1.04
GGAGAGAATG	0.966
CCAACAGTCG	0.979
TGTTTTACGG	0.979
TAAGGCAATC	2.81
GGACGACAAT	1.4
AGGGCCCAAT	1
CCGTAATAAG	4.85
GATCTCTCAT	0.997

Sequence	switch fluorescence ratio
TTAATTAAA	0.913
GCAAGAGAAT	0.955
ATTCTGGCTG	1.01
ATTAGTCTGG	1.02
TCTACCGGTC	1.05
TTTGGGCGGC	1.02
AGGTGGTTTA	0.986
CTAAGTATCA	1.07
CGAGTTGTC	0.934
GCATTCACTC	1.44
GATTCATGTA	0.979
CGTACTGGTT	0.992
TAATGATCAG	0.977
GTCTCGAATC	1.02
GATATAAATG	0.991
GCGGCTGT	1.02
CTGGGTTCGT	0.976
CAGTAGAAGA	1.01
CTGAGTACAA	1.09
GCATTAGTCT	0.993
CAGGCACCGT	1.03
GGACGCCAGT	1.03
CTTCCAAAGA	1.04
AACAGCACTC	1.37
CGACGTCGAT	1.03
CTTTACAGCG	1.01

Sequence	switch fluorescence ratio
TGAATTACC	1.02
TTAAGATACG	1.03
TCAAGTTTGA	1
GACGCCTTGG	0.981
ATCGGTCCTG	1.01
AATAGGCACT	0.999
GACAGTTGGA	0.939
CATTGACTAT	1.04
CGTTAGACAT	0.986
TTTTCGACAA	1.02
CGCTGATG	1.01
CCCAGGGTGA	3.13
GACTTTGATG	1.01
ATGAAAGAGT	1.01
TGTTCGGAAG	1
TTCTCGCCCT	1.03
TCGGAGTACA	1.18
CCCGGTGAGT	1.18
TATTGCCTCA	0.942
GCGGGTGACA	1.03
TGCACTAGC	1.01
TAGAAGATGC	0.988
ACAAAGATTA	1.04
AACCTAGAGG	0.986
TCAGTTAAGA	0.996
CGTACCGTAG	1.07

Sequence	switch fluorescence ratio
TTCCCGGGGC	1.07
TTAGTTAA	1.02
AGGCTTTTAG	1.03
CACCTCCAAG	1.12
ATAGTTGTA	0.978
CTTTCAGTGA	1
ATATTACCTT	0.993
ACTGTTGGTG	1.05
CGCGCGTTGT	1.05
GCATTCCTTA	1.03
CTAGCTTCCC	1.38
CACGGATCGG	0.994
GGTCGGTTCC	1.06
TGACTAGGCT	1.03
CGGACGTTGT	0.972
TCTTCCTGTT	0.993
GGTTGGGGTC	0.962
CTTACCCTGG	1.11
GACTATAACG	1
